Measured values published in paper PMC4336329 (PLoS ONE, 2015).
About 14,000 (4.5%) of roughly 310,000 compounds showed an effect of 50% or more. Effects have a minus sign here. The list shows a part of the results.

These compounds were tested against human ether-à-go-go-related gene (hERG) potassium channel (human, UniProt Q12809) (assay: primary screen, population patch clamp on CHO cells stably expressing hERG).
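Further: peak tail current of the secondary pulse compared with the same well before compound.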

human ether-à-go-go-related gene (hERG) potassium channel, sequence (Q12809 whole entry, looked up): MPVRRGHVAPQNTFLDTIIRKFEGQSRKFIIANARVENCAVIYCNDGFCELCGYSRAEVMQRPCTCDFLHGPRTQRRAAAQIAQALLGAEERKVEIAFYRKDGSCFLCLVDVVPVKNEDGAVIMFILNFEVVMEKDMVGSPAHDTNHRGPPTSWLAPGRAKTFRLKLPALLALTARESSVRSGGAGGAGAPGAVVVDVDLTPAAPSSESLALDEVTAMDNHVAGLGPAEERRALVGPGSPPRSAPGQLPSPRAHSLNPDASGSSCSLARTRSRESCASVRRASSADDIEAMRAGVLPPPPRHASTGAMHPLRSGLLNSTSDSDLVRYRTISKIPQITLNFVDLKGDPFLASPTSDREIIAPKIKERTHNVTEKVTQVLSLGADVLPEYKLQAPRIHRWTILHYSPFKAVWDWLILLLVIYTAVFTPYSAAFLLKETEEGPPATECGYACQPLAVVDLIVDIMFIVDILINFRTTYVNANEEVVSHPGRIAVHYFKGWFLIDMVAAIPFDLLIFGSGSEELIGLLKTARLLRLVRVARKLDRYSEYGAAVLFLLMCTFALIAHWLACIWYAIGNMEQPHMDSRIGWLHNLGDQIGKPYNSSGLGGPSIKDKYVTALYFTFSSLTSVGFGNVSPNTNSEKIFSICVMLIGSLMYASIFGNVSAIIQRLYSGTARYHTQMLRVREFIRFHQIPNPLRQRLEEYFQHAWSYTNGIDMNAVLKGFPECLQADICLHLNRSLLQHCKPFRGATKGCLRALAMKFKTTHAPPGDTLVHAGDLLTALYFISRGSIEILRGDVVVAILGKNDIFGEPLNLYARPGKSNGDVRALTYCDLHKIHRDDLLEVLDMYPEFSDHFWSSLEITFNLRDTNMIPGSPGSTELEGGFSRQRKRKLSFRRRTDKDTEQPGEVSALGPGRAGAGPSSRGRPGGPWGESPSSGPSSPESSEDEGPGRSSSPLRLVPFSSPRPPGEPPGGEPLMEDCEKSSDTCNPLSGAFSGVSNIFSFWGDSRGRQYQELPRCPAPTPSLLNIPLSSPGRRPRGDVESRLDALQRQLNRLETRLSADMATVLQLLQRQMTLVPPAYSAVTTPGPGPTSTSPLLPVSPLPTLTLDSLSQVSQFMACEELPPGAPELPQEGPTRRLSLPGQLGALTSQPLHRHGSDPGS

| Compound | hERG current change (%, negative = inhibition) at 10uM |
| --- | --- |
| CC1CCN(C(=O)CN(c2ccc(Cl)c(C(F)(F)F)c2)S(C)(=O)=O)CC1 | -5.67% |
| COc1ccc(-c2nc3ccccc3n2Cc2ccc(C)cc2)cc1 | -6.29% |
| Cc1ccc2[nH]c3c(=O)n(Cc4ccccn4)cnc3c2c1 | -1.6% |
| CCN(CC)C(=S)SC1CCCCN(C(=O)c2ccccc2)C1=O (centres unmarked) | -9.24% |
| Cc1ccc2nc(C)c(C(=O)NN=C3CCN(C)CC3)n2c1 | 12.1% |
| Cc1ccc(CCNC(=O)C2CCN(S(=O)(=O)c3c(C)nn(C)c3C)CC2)cc1 | -3.06% |
| CN(CC(=O)Nc1ccc(Cl)c(C(F)(F)F)c1)C(=O)C1CCC1 | -14.8% |
| CC(C)C(=O)NN1c2ccccc2CCc2ccccc21 | -7.49% |
| COc1cccc(/C=N/Nc2ncc(C)c(=O)[nH]2)c1OC | -3.72% |
| Cc1cc(NC(=O)c2ccc(NC(=O)C3CC3)cc2)no1 | 20.8% |
| CCCC[n+]1ccn(-c2nc3ccccc3nc2[N-]S(=O)(=O)c2cccs2)c1 | -10.2% |
| C=C(C)COc1ccc2c(C)c(CCC(=O)NC3CC3)c(=O)oc2c1 | -2.92% |
| CCOC(=O)c1sc(=S)n(CC)c1NC(=O)c1ccccc1C | 12.5% |
| CC1CN(C(=O)/C=C/c2ccc(SC(F)F)cc2)CC(C)O1 (centres unmarked) | -59.6% |
| NS(=O)(=O)c1ccc(O)c(NC(=O)c2ccc([N+](=O)[O-])cc2)c1 | 13.3% |
| Cc1cc(-n2cc(Br)c(=O)[nH]c2=O)nc(-c2ccccc2)n1 | -1.85% |
| O=C(CSc1ncc(S(=O)(=O)c2ccccc2)c(=O)[nH]1)Nc1ccccc1Cl | 4.77% |
| COc1ccc(OC)c(S(=O)(=O)n2nnc3ccccc32)c1 | -24.9% |
| COc1ccc(-c2csc3ncnc(N4CCN(S(=O)(=O)c5cccc(Br)c5)CC4)c23)cc1 | 17% |

| Compound | hERG current change (%, negative = inhibition) at 10uM |
| --- | --- |
| CCCC(=O)NCCCc1nc2ccccc2n1C | -1.95% |
| COC(=O)N=Nc1c(O)[nH]c2ccc(Br)cc12 | -5.68% |
| COC(=O)c1cc2ccsc2n1Cc1nc(-c2ccc(Cl)cc2)oc1C | 7.33% |
| Cc1nc(Cl)c(Cl)n1CCOc1ccccc1 | -6.44% |
| CCOC(=O)CSc1nnc(CNC(=O)c2ccc(S(=O)(=O)N3CCCC3)cc2)n1C | 18.5% |
| CSc1ccc(CN(C)Cc2nc3cc(C(F)(F)F)ccc3c(=O)[nH]2)cc1 | 12.9% |
| Cc1ccc(NC(=O)CN2C(=O)NC(C)(c3ccc(Cl)cc3)C2=O)c(Br)c1 (centres unmarked) | -0.775% |
| Cc1c(C)c2ccc(OCC(=O)c3ccccc3)cc2oc1=O | 31.2% |
| Clc1ccc(OCc2nn3c(C4CCCCC4)nnc3s2)cc1 | -14.9% |
| O=[N+]([O-])c1cccc(-c2csc(N/N=C/c3cccc(O)c3)n2)c1 | 6.76% |
| O=C(NCCc1c[nH]c2ccccc12)c1cc2ccccc2oc1=O | -0.59% |
| NC(=O)COC(=O)C1CSC2(c3ccc(F)cc3)CCC(=O)N12 (centres unmarked) | 9.89% |
| COc1ccc(CN2CCNC(=O)C2CC(=O)NC2CCCCCC2)c(F)c1 (centres unmarked) | -20.2% |
| CC(=O)Nc1ccc(-c2ccc(NC(C)=O)c(O)c2)cc1O | 12.7% |
| O=C(COc1ccccc1)Nc1ccccc1C(=O)NCc1ccco1 | -6.63% |
| COC(=O)c1ccc(CSc2nc3ccccc3s2)o1 | -9.12% |
| CCS(=O)(=O)N1CCC(C(=O)OCC(=O)c2ccc(Br)cc2)CC1 | 3.45% |
| CC(NC(=O)C1CCC1)c1ccc2c(c1)OCO2 (centres unmarked) | -5.51% |
| O=C(COC(=O)c1ccc(CNS(=O)(=O)c2ccc(F)c(Cl)c2)cc1)NC1CCCCCCC1 | 9.59% |

| Compound | hERG current change (%, negative = inhibition) at 10uM |
| --- | --- |
| CC(=O)Nc1ccc(S(=O)(=O)N(C)CC(=O)OCC(=O)N2CC(C)OC(C)C2)cc1 (centres unmarked) | 3.96% |
| CCOC(=O)C[N+](C)(C)CCOC1CC2CCC1(C)C2(C)C.[Cl-] (centres unmarked) | 10.3% |
| Cc1ccc(NC(=O)CSc2nnc(CNC(=O)c3ccccc3F)o2)cc1 | 2.03% |
| Cc1cc(C)nc(SCC(=O)Nc2ccc(N3CCOCC3)c(Cl)c2)n1 | -20.2% |
| COc1ccc(/C=C/C(=O)Nc2ccccc2C)cc1S(=O)(=O)N1CCOCC1 | -45.3% |
| CC(C)NC(=O)CCS(=O)(=O)c1cccc2nonc12 | -2.08% |
| CCOc1ccc(NS(=O)(=O)c2ccc3c(c2)N(C(C)=O)CCO3)cc1 | 4.72% |
| O=C(CSc1cccc[n+]1[O-])c1cc(Cl)ccc1Cl | 25.9% |
| CCOc1ccc(NC(=O)C2CCN(C(=O)C3CC(=O)N(c4ccc(C)cc4)C3)CC2)cc1 (centres unmarked) | -22.1% |
| CCCc1cc(=O)oc2cc(C)cc(OCC(=O)Nc3ccc(S(N)(=O)=O)cc3)c12 | 22% |
| O=C(NCc1ccc(C(F)(F)F)cc1)C1CC(c2ccccc2[N+](=O)[O-])=NO1 (centres unmarked) | -46.1% |
| FC(F)Oc1ccccc1NC(=S)Nc1cccc(Cl)c1Cl | -4.74% |
| CCOc1ccc(-n2c(=O)cc(N3CCN(c4ccccc4)CC3)[nH]c2=O)cc1 | 3.96% |
| O=C(Nc1nnc(-c2ccccc2)o1)c1cc(-c2cccs2)nc2ccccc12 | 2.29% |
| Cc1ccc(Oc2coc3cc(OC(=O)c4cccs4)ccc3c2=O)cc1 | -2.04% |
| Cc1cccc(N(CC(=O)NC2CCCC2)C(=O)c2c(C)noc2C)c1 | 8.05% |
| COC(=O)[C@H]1Cc2cnoc2C[C@]1(C)C(=O)O | 5.43% |
| CC(=O)Nc1ccccc1C(=O)N1CCN(c2cccc(C)c2C)CC1 | 12.8% |
